# From paper PMC4336329 (PLoS ONE, 2015)
# Among all 310,000 compounds or so, about 14,000 (4.5%) showed an effect of 50% or more. The effect is printed as a negative number. Some of the results follow.
# Target: human ether-à-go-go-related gene (hERG) potassium channel (human, UniProt Q12809)
# Assay: primary screen, population patch clamp on CHO cells stably expressing hERG
# 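Also: peak tail current of the secondary pulse compared with the same well before compound.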
# human ether-à-go-go-related gene (hERG) potassium channel, sequence (Q12809 whole entry, looked up): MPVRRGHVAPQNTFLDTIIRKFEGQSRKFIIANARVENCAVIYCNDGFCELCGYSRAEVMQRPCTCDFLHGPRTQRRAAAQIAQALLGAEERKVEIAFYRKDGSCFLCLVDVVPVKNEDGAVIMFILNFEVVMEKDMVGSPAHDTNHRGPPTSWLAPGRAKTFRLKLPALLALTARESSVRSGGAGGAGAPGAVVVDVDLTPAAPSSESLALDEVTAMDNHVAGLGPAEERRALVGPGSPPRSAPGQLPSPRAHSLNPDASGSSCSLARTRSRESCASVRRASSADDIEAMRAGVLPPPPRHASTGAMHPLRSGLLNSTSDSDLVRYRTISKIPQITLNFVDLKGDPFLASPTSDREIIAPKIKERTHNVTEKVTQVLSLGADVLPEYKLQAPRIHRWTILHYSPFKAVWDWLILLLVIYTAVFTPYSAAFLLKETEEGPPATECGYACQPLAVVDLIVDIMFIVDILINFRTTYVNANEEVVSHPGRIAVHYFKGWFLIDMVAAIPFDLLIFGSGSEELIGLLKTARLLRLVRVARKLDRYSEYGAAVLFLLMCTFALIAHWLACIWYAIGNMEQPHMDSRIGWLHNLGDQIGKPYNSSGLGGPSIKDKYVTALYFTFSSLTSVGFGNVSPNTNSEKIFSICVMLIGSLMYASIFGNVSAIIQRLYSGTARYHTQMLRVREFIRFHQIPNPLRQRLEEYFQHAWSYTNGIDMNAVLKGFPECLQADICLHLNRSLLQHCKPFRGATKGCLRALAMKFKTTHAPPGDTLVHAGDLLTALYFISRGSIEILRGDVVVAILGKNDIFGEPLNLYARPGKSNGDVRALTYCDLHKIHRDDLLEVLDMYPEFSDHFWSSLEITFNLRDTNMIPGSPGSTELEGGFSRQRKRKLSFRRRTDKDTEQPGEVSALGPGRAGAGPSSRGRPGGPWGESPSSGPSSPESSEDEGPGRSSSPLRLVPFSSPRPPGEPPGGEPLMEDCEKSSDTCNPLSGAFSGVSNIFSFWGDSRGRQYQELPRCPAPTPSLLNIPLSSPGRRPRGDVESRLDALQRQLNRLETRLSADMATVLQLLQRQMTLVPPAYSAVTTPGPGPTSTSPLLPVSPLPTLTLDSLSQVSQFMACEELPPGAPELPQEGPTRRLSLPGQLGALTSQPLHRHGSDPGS
row,SMILES,"hERG current change (%, negative = inhibition) at 10uM"
1,COc1ccc(N(CC(=O)Nc2cccc(C(C)=O)c2)S(C)(=O)=O)cc1OC,-10.5%
2,Cc1ccc(S(=O)(=O)N2CCN(C(=O)COC(=O)c3ccccn3)CC2)c(C)c1,7.37%
3,COc1ccc(CCN2C(=O)C(O)=C(C(C)=O)C2c2ccccc2OC)cc1OC (stereo not drawn),19.4%
4,COc1ccc(OC)c(CN2CCSCC2)c1,9.69%
5,CC(=O)Nc1ccc(S(=O)(=O)NC2CCSc3ccccc32)cc1 (stereo not drawn),3.02%
6,CN1C(=O)N(CC(=O)Nc2sccc2C(N)=O)C(=O)C12CCCCC2,1.58%
7,O=C(Nc1cccc2c1CCCC2)c1ccccc1Cl,13.2%
8,COc1cccc(CN2CCN(Cc3ccc4cccc(F)c4n3)CC2CCO)c1 (stereo not drawn),-39.9%
9,O=C(O)Cn1cc(/C=C2/SC(=O)N(CC(=O)N3CCCCCC3)C2=O)c2ccccc21,17.1%
10,O=S(=O)(c1ccccc1)N1CCN(Cc2cc3c(cc2Br)OCCO3)CC1,2.87%
11,O=C(c1ccccc1/S(=N/S(=O)(=O)c1ccccc1)N1CCOCC1)N1CCOCC1 (stereo not drawn),-0.047%
12,Cl.O=C(CNC1CCCCC1)NCC1(c2ccccc2)CCCC1,-0.949%
13,CSc1nc2ccc(S(=O)(=O)N3CCCC3)cc2s1,2.69%
14,Cn1c(C(C#N)/C(=N\S(=O)(=O)c2cccs2)c2ccccc2)nc2ccccc21 (stereo not drawn),2.46%
15,Cc1c(C(=O)N2CCN(c3ccccn3)CC2)oc2c(F)cccc12,-26.7%
16,CC1(C)CC(=O)C(C=NCCN2CCN(C(=S)Nc3ccccc3)CC2)=C(O)C1,-11.3%
17,O=C(Cc1csc(Nc2nc(=S)[nH]c3ccccc23)n1)NCc1ccccc1Cl,16.2%
18,CCN(CC)C(=O)OCc1c(-c2ccccc2)ncc2ccccc12,-25.5%
19,CCOc1ccccc1NC(=O)c1cccc2c1C(=O)N(CCOC)C2,-48%
20,CCCCOc1ccc(S(=O)(=O)NNC(=O)c2cc3ccccc3o2)cc1,-3.43%
21,O=C(CSc1nccn1Cc1ccc(F)cc1)Nc1ccc(F)cc1F,6%
22,O=S(=O)(NN=C1CCCCCCC1)c1ccc(Br)cc1,4.3%
23,COC(=O)c1ccc(CSc2nnc(-c3ccncc3)o2)o1,0.0203%

row,SMILES,"hERG current change (%, negative = inhibition) at 10uM"
1,O=C(CSc1nnc(NC(=O)C2CCC2)s1)Nc1ccc(N2CCOCC2)cc1,13.4%
2,Cc1oc2c(CN(C)C)c(O)ccc2c(=O)c1-c1ccc2ccccc2n1,-7.18%
3,CCOC(=O)c1cc2c(C)n(-c3ccc(OCC)cc3)c(C)c2ccc1=O,-13.2%
4,CCOC(=O)c1sc2ccc(S(=O)(=O)N3CCCCC3)cc2c1N,14.2%
5,O=C(NC1CCS(=O)(=O)C1)c1cc(-c2ccccc2)nc2ccccc12 (stereo not drawn),13.6%
6,CC1CCN(CCCCOc2ccccc2-c2ccccc2)CC1.O=C(O)C(=O)O,-72.6%
7,COC(=O)Cc1[nH]c(=O)[nH]c1C(=O)OC,2.56%
8,Cc1ccc(N(CC(=O)NCc2ccc(F)cc2)C(=O)c2csnn2)c(C)c1,-34%
9,Cc1ccccc1NS(=O)(=O)c1ccc(NC(=O)N2CCCCC2)cc1,-1.35%
10,NC(=O)C1CCN(C(=O)CCNS(=O)(=O)c2cc(Br)cnc2N)CC1,14.7%
11,CCCn1nnc(NC(=O)COc2ccccc2Cl)n1,4.35%
12,CC(C1CC1)N(Cc1ccccc1)C(=O)NC(=O)c1ccccc1 (stereo not drawn),3.36%
13,CCSCCC(NC1=CC(=O)CC(C)(C)C1)C(=O)O (stereo not drawn),3.86%
14,Cc1cccc(C(C)C)c1NC(=O)c1cccnc1,4.82%
15,OCCNCC(O)Cn1ccc2ccccc21 (stereo not drawn),-1.13%
16,CN(C)C(=O)Oc1cccc(NC(=O)c2ccccc2C(F)(F)F)c1,2.07%
17,CCc1noc(C)c1C(=O)Nc1sc(C(=O)N(C)C)c(C)c1C#N,18.4%
18,Cc1nc2ccc(C(=O)c3ccccc3)cc2[nH]1,9.07%
19,CCC/C([O-])=N\S(=O)(=O)c1ccc(N=NN(C)C)cc1.[K+],11.7%
20,Cc1cc(C)nc(NC(=O)c2ccc(Br)cc2)n1,11.2%
21,O=C(Nc1cccc(NC(=O)c2nccc3ccccc23)c1)c1ccco1,10.9%
22,Nc1ccc(C(=O)N/N=C/c2cn(Cc3ccccc3)c3ccccc23)cc1,18.5%
23,COc1ccc(-c2nc(CS(=O)(=O)CC(=O)NCc3ccccc3OC)c(C)o2)cc1,-1.62%

row,SMILES,"hERG current change (%, negative = inhibition) at 10uM"
1,CCc1cccc(C)c1NC(=S)N(CCN(C)C)C(C)c1ccco1 (stereo not drawn),-16.8%
2,COc1ccc(/C=N/NC(=O)c2nc(-c3ccccc3)cc(-c3ccccc3)n2)cc1,-2.68%
3,COc1ccc(/C(O)=C2/C(=O)C(=O)N(CCN3CCOCC3)C2c2ccccn2)cc1OC (stereo not drawn),-10%
4,CC(C(=O)Nc1ccc(C(N)=O)cc1)N1C(=O)c2ccccc2S1(=O)=O (stereo not drawn),1.35%
5,CC1=C(C(=O)Nc2ccccn2)C(c2ccc(N(C)C)cc2)n2ncnc2N1 (stereo not drawn),-62.7%
6,Nc1ccc(Sc2ccc([N+](=O)[O-])cc2)cc1,5.09%
7,O=C(CCNC(=O)c1ccc(Br)cc1)NCCCc1ccccc1,-4.7%
8,CCCN(C(=O)CSCC(=O)Nc1cccc(C)c1)c1c(N)n(Cc2ccccc2)c(=O)[nH]c1=O,6.24%
9,Cc1ccc2nc(NS(C)(=O)=O)sc2c1,16.8%
10,Cc1ccc(C(=O)NC2CCCC(C)C2C)cc1S(=O)(=O)N1CCCCC1 (stereo not drawn),-20.6%
11,CCOC(=O)c1cnc(-n2nc(C)cc2C)nc1N1CC(C)OC(C)C1 (stereo not drawn),-13%
12,CCNC(=O)COC(=O)c1ccc(-n2nc(C)cc2C)cc1,-5.43%
13,CC1=NN(c2nc(C)cc(C)n2)C(=O)C1CCC(C)C (stereo not drawn),-1.94%
14,CCOC(=O)c1c(C)[nH]c(C)c1S(=O)(=O)NCCc1ccco1,-4.93%
15,Cc1cc(C)n(-c2ccc(C(=O)OCC(=O)c3ccc(Br)s3)cc2)n1,2.52%
16,O=C(C1CCCO1)N1CCc2ccccc21 (stereo not drawn),17.1%
17,O=C(Nc1ccccc1C(=O)O)c1cccc(S(=O)(=O)Nc2ccc(Br)cc2)c1,16.8%
18,Cc1sc2nc(SCC(=O)C(C)(C)C)n(Cc3ccco3)c(=O)c2c1C,20.4%
19,O=C1NC(=S)CN1c1ccccc1,9.45%
20,O=C(Nc1cccc2ccccc12)N1CCOCC1,30.5%
21,Cc1cccc(C)c1NC(=O)c1sccc1SCc1cccc(C(F)(F)F)c1,-4.76%
22,COc1cc(/C=C/C(=O)OCC(=O)N2CCOCC2)ccc1OCC#N,12.4%
23,Cc1ccnc(NC(=O)Nc2cccc(F)c2)n1,2.88%

row,SMILES,"hERG current change (%, negative = inhibition) at 10uM"
1,COc1ccc(NC(C)(C)c2nnnn2-c2c(C)cccc2C)cc1,-4.2%
2,COC(=O)c1ccc(CSc2nnc(CNC(=O)c3ccccc3F)o2)o1,-14.5%
3,O=S(=O)(Nc1ccon1)c1ccc(Br)s1,14.9%
4,CCc1ccc(OCC(=O)NC(NC(=S)Nc2ccccc2)C(Cl)(Cl)Cl)cc1 (stereo not drawn),21.7%
5,Nc1ncnc(Oc2cccc(C(F)(F)F)c2)c1[N+](=O)[O-],-0.217%
6,CN1CCN(c2nc(-c3cc4ccccc4o3)cs2)CC1,-16.9%
7,COc1ccccc1CNC(=O)CNCCc1ccc(OC)c(OC)c1.O=C(O)C(=O)O,-1.23%
8,CCn1nnc2cc(C(=O)NCCc3ccccc3F)ccc21,-16.7%
9,COc1ccc2cnn(CCOc3cc(C)ccc3C(C)C)c(=O)c2c1OC,-9.59%
10,Nc1cc(-c2ccccc2)nn1Cc1ccc(Cl)cc1,-19%
11,COC(=O)c1cn(Nc2ncc(C(F)(F)F)cc2Cl)c(=O)c2ccccc12,0.104%
12,COc1cc(/C=C/C(=O)O)cc(S(=O)(=O)NCCCO)c1OC,6.81%
13,COc1ccc(C(=O)NNS(=O)(=O)c2ccc(OC)cc2)cc1,2.62%
14,O=c1cnc2ccccc2n1CC1CCCCC1,0.812%
15,Cc1ccc(C(=O)NNC(=O)Cn2nnc3ccccc32)cc1,13.3%
16,COc1ccc(NC(=O)N2CCN(c3nc(-c4cccc(OC)c4)cs3)CC2)cc1,-0.729%
17,COc1ccc2[nH]c3c(=O)n4c(nc3c2c1)SCC4,6.11%
18,CNC(=O)/C(C#N)=C1/SC(Cc2ccc(F)cc2)C(=O)N1c1ccccc1 (stereo not drawn),7.53%
19,c1ccc(COC2CCCN(Cc3nc(Cc4ccccc4)no3)C2)cc1 (stereo not drawn),-0.814%
20,Cc1ccc2cccc(OCC(=O)c3cc(C)n(Cc4ccco4)c3C)c2n1,8.98%
21,Clc1ccccc1Cn1nnc(-c2cccs2)n1,4.89%
